In general, CC50 refers to the concentration giving 50% cytotoxicity. A lower CC50 goes with harm at low concentration.

This is one part of the list. These are further read-outs of the screen, such as a control signal, another cell line or another target. No call is given for them. Most of these compounds were active or inconclusive in the main read-out, so they are no random draw. The note in brackets gives the kind of curve behind each potency; many fits are weak.

Here are results for 20 molecules from PubChem BioAssay AID1347044 (National Center for Advancing Translational Sciences (NCATS), 2019).
Tags describe the fitted curve by direction and shape.

This test in a line: Natriuretic polypeptide receptor (hNpr1) antagonism - Confirmation. Further: nearly all actives have a fitted effect of over 70% in size. The following applies: HEK293 hNpr1 cGMP GloSensor luminescence, ANP-stimulated; measured here: HEK-hNpr1 cytotoxicity, CellTiter-Glo. Summed up:
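Compound (30 min, room temperature) preceded stimulation with hNppA peptide at 0.1 nM final for 20 min. Cells were HEK293 carrying hNpr1 plus GloSensor pGS-40F cGMP biosensor, pre-equilibrated 2 h with 2% substrate; cGMP was followed as luminescence pre- and post-agonist.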
Take `COc1ccc(-c2noc(CC3CCN(C(=O)c4cc(F)ccc4F)CC3)n2)cc1`: the CC50 was 10.9 µM [falling, partial curve].
For `CCC(C)NC(=O)N1CC(Oc2ccc(-c3noc(C4CCOCC4)n3)cc2)C1` (stereo not given), the CC50 was 6.11 µM [falling, full curve].
Turning to `O=[S+]1([O-])NCC2(CCCN(Cc3ccc(C(F)(F)F)cc3)C2)Oc2ncccc21` (stereo not given), the CC50 is 21.7 µM [falling, partial curve, poor fit].
In the case of `O=C(Nc1ccc(Cl)cc1)c1nc2c(o1)CCN(Cc1cc(F)ccc1F)CC2` it was 35.3 µM [falling, partial curve].
For `O=C(c1ccc(Cl)cc1Cl)N1CCN(c2cc(-c3ccccc3)[nH]n2)CC1` the value was 17.2 µM [falling, partial curve].
With `CN(C)C(=O)c1cc2c(s1)CCC(C(=O)N1CCN(c3cccc(Cl)c3)CC1)C2` (stereo not given), the CC50 was 19.3 µM [falling, partial curve].
For `CC(C)S(=O)(=O)N1CC(Oc2ccc(-c3noc(C4CCOCC4)n3)cc2)C1` the value was 13.7 µM [falling, partial curve]; for `COc1ccc(OCC2(C)COc3ccc(C(=O)Nc4ccc(OC)nc4)cc3N2)cc1` (stereo not given), 35.3 µM [falling, partial curve]; for `Cc1nn2c(c1-c1ccccc1C(C)C)N(CCC(C)C)CCC2`, 49.8 µM [falling, single point].
For `CN(C)c1ccc(C(=O)N[C@H]2CO[C@H]3[C@@H]2OC[C@@H]3n2nnnc2Oc2cccc(N(C)C)c2)cc1` the value was 19.3 µM [falling, partial curve].
On to `CC1=NS(=O)(=O)N(C)C=C1C(=O)OCc1noc(-c2ccccc2C)n1`, for which the CC50 was 17.2 µM [falling, partial curve].
In the case of `O=C(C1CCCC1)N1CCC(CCOc2ccc(F)cc2)C1` (stereo not given) it was 30.6 µM [falling, single point]; in that of `O=C(c1ccc(F)c(Cl)c1)N1CCN(C(=O)c2nnn3c2COC(c2ccccc2)C3)CC1` (stereo not given), 24.3 µM [falling, partial curve]; in that of `O=C(Nc1ccc(F)c(Cl)c1)C1=NO[C@@H]2CN(Cc3cccnc3)C[C@H]12`, 35.3 µM [falling, partial curve].
For `O=C1COc2ccc(NCCc3ccccn3)nc2CN1Cc1ccc(C(F)(F)F)cc1` the value was 43.2 µM [falling, single point].
With `CC(C)c1ccc(N2C(=O)[C@@H]3C[C@@H](NC(=O)C4CCN(c5nccc(C(F)(F)F)n5)CC4)CCN3C2=O)cc1`, the CC50 was 4.32 µM [falling, full curve, poor fit].
For `COc1ccc(NC(=O)N2CCCC(c3noc(COc4ccccc4)n3)C2)c(C)c1` (stereo not given) the value was 30.6 µM [falling, single point]; for `COc1cccc(CNC(=O)Cn2c(N(C)Cc3ccccc3)nc(C)cc2=O)c1OC`, 27.3 µM [falling, partial curve]; for `COc1cc(OC)cc(C(=O)N2CCCN(c3cc(-c4ccc(Br)cc4)[nH]n3)CC2)c1`, 27.3 µM [falling, single point].
For `COc1ccc(CC(=O)N2CCC(Cc3nc(-c4ccc(OC)cc4)no3)CC2)cc1` the value was 4.85 µM [falling, full curve].
